Test results: the supplement of paper PMC10126150
Values marked as one replicate rest on one cluster of the flow cell; about a third of the high ones do not repeat.

System: ATP
Assay: switch fluorescence ratio, 500 uM ATP over buffer (Cy3 cluster intensity, sum of 5 cycles each) (fold (ratio)); higher = stronger signal-on switching upon ATP binding; sequences stand for … in TCGTCGGCAGCGTCAGATGTGTATAAGAGACAGTTTTTTTTTTTTTTTTTTTTTTTTT…TC
Details: aptamer strand: ATP DNA aptamer (quencher-CACCTGGGGGAGTATTGCGGAGGAAGG + anchor), 100 nM annealed; ATP concentration: 500 uM; one replicate
Outline: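 Between each of five buffer/ATP cycles, the flow-cell was stripped with NaOH and re-annealed. Each cycle imaged Cy3-labelled switching-strand clusters, annealed to 100 nM quencher-labelled ATP aptamer on a modified Illumina MiSeq flow-cell, first in selection buffer and then after 15 min with 500 uM ATP at 22 °C. The fluorescence ratio is summed target-cycle over summed buffer-cycle Cy3 intensity per cluster, averaged per switch-domain sequence, with clusters outside 100-1000 RFU excluded.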
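Further: ATP exposure 15 min at 22 °C before imaging.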

Sequence	switch fluorescence ratio
AATCTACAAT	1.01
TAATTCTTGT	1
TTCCGAAATC	5.29
CGGGTCGGAC	1.03
CGAGACTTGG	1.05
GCCGCGGCTG	0.981
ACTCCCGAT	1.03
TAGAGCATGG	0.979
CGAATGTCGG	1.02
CGAACCTGG	1.03
GGGGCGATCT	1.01
CATAAATTAT	0.977
TGCTAGCCAC	1.04
TCGGTCTGAA	0.994
GACTTGAGC	1.08
AGTAGCCGA	1.02
GCACGATTGA	1.06
GCTTGAACGT	0.956
CGGGAATTGC	1.12
CATTCCAAGA	1.1
GCGTCCTATG	0.967
TTTGAACGTA	1.03
GGGGTGCTGG	0.982

Sequence	switch fluorescence ratio
CGAGAATGAC	1.11
TCCGGTGGAG	1.02
TTTACACTTC	0.971
TCGGACGCTT	4.16
TGAGTGCTAG	1.13
GGGGAGTAGA	1
TCTCAATTTA	1.01
CCTGGTTCTC	1.07
CCTCTTAAGT	1.16
GTGGGTTACG	1
TATATAACAG	0.987
GTCTCACGCC	1.07
GCTTCCTTGC	1.53
GGCGTGATTT	1.03
ATTTAACAGC	1.02
TATATCCT	1.15
GGGCCGCACA	1.29
GGGTCTTACT	1.05
TAAAGGACGA	1.04
CGTGACTCTT	0.936
CCCTCAGAGC	1
GGCTCACTTG	1.03
TTTGCACATC	1.6

Sequence	switch fluorescence ratio
ATAGGTAAAA	1.11
GAGGTATCGG	0.978
GCCGTGTTGA	1.04
GCAACAAATG	1.04
CTGAAGTGAT	1.53
AAGTGTAAAT	1.03
ACCACTGTTT	1.02
GCTGGGAACG	0.973
GCGTTCCGAA	1.08
CGCATCTTAG	1.12
TCGCTCATTT	0.995
GGAGGGGAAC	1.17
ACTGGCGAGG	1.02
TGGCTATCAA	1
TGTCGGGG	0.998
CTGCATGCGA	1.61
AAGCAGCCAC	1.2
GTGACTGCCT	1.09
CTGACTAAT	1.04
CCATATTCTA	1.02
TGCTCCTATT	1.03
CATAACTTTA	1.04
ATAAACTCGA	0.996

Sequence	switch fluorescence ratio
CGTAGTCTGT	1.01
GAATTGAAAG	1.15
AATTTATGG	1
GATAATCTGA	0.97
AAGGGAAGTT	1.01
TTAATCGGGT	0.984
TCGTTTAGAA	0.998
ACTGGACGGC	1.46
GAAAGTTTAG	0.984
CTGGTTTACG	1.03
CATCACTCCA	1.36
GCGTCCGAT	1.01
TTAATGTGTA	1.03
ACTATTAAA	1.01
GCTGCCCTTT	1.01
CAGGTCCATC	0.999
GGCATTATTG	0.986
TAAAGTAGAG	0.988
TGGGCTTAGG	0.995
ATGTCGTTGT	0.991
ATCGATCTTG	1.05
CGCCGCCATT	1.78
GCGTTACGGC	1.07

Sequence	switch fluorescence ratio
CGGCGCTTAA	1.53
AATCATTAGT	0.973
TCTAGCATTG	1.01
CCGAAGACGC	3.33
GAGTTAGGAC	1.03
GATTCTTAG	0.978
GGTGACTTTT	1
GGGCCATCTG	0.938
AGCCCGCCC	1.11
CTATTTTCGG	0.977
ATCAGCACCC	1.11
CTTAGATT	0.994
TATGCTAATA	1.03
GGACACTATG	1.02
TATGTTGTCA	1.02
ATCATGTCTG	1.02
GGCGGCTATC	0.975
TATTCTTTT	0.993
GGCCCATGAA	1.05
AGCAAATCCT	1.15
CGCGAGAATG	1.01
GAATAATCTG	1.06
AATGTCGA	0.981

Sequence	switch fluorescence ratio
GTGTCTAGTC	1
GGTTAGAGA	1.05
GGCCAGCATG	1
TGGCTGGTT	0.952
CGTACCCTTC	1.07
AGTGGCATAT	0.981
ACAGTGGCAC	0.933
TACAACGGGG	1.02
GAGCTTACCG	1.01
AAGTAGAGGG	0.942
CACGCTGGTA	0.992
TGGGACTCAC	1.13
ATGGAATCGG	1
CCAACGAATA	2.29
TTTCGACAGC	1.13
CGATCTCTTG	1
GAGGGTTCTC	0.984
AAATATGCCA	0.984
TAACCCCGGG	1.25
CTGTGTAAGC	1.02
AGGGGGACTT	1.02
ATGCGAATAA	0.983
AACATTGGCG	0.968

Sequence	switch fluorescence ratio
TGGAAAACCA	0.997
GGGACGATGT	0.985
CACAGACGGG	1.25
AATTCAACGG	1.02
TTTGTCCTAG	0.999
AACTACGGCG	1.05
CTCGTAATTT	1.26
CGTGTCCTTA	0.972
TCATGACATC	1.01
CATAGCGGAC	3
TGATATCGGA	1.04
GATTACCTGA	1.08
GATTTCAGCG	0.976
TGCGAGATGC	1.05
TCGCGATGGT	1.51
CATGGGCT	1.01
GTAGTCAACG	1.03
TATTCTCGA	0.991
CGCCGGGACG	1.05
CCAGTGGTCT	0.973
